Experimental data: PubChem BioAssay AID445 (National Center for Advancing Translational Sciences (NCATS), 2006)
Screen size: about 110,000 compounds; about 40 (0.04%) were called active. Inconclusive results, whose numbers are uncertain, are shown with a selection of clear calls. Calls follow the shape of the dose curve; as a rule, active = well fitted curve in the direction sought with a large enough effect in the signal ratio (not every such curve was filed as active); inconclusive = small, poorly fitted or top-dose-only effect, or a change in a side signal; inactive = flat fitted curve, though single readings scatter; the % refers to the signal ratio. Where the call is inconclusive, the potency comes from a doubtful curve fit.

Assay: IkB Signaling;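 as to IkBa stabilization activation: 0% = basal untreated cells and 100% = reference inhibitor full response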
Settings: ABC-DLBCL IkBa-CBG/CBR dual luciferase ratio (green luciferase fused to IkBa over red control in OCI-Ly3 lymphoma cells), 4 h; IkBa stabilization activation: at 57.1 µM (top of the series), scaled: untreated 0%, proteasome inhibitor 100% unless noted
How it was run: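 Curves were fitted separately to fusion (green), unfused (red) and ratio luminescence, then classed by r2, magnitude and activity. Cells: OCI-Ly3, 4 h compound plus doxycycline at 37C; 10 uM MG-132 defined full response.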
Potency is read from the fitted curve at half-maximal effect.

Compound | IkBa stabilization activation | Potency
COc1ccc(Cn2c(SCc3ccc(C(=O)NCc4ccccc4F)cc3)nc3cccnc32)cc1 | inconclusive: 0.998% [signal inhibitor] | –
O=C(NCCc1ccccc1)c1c[nH]c2ccc(S(=O)(=O)Nc3ccccc3F)cc2c1=O | inconclusive: 2.55% [signal inhibitor] | –
COc1ccc(NC(=O)Nc2nnc(N(C)C3CCCCC3)s2)c(OC)c1 | inconclusive: 2.71% [signal inhibitor] | –
CCN[C@@H]1C[C@H](N)[C@H](O[C@H]2OC(CN)=CC[C@H]2N)[C@@H](O)[C@H]1O[C@H]1OC[C@@](C)(O)[C@@H](NC)[C@@H]1O | inactive: 0.438% [at 25.6 µM, scaled: untreated 0%, proteasome inhibitor 100%] | –
Cn1cc(/C=N/n2cnc3scc(-c4ccccc4)c3c2=O)c2ccccc21 | inactive: -1.39% | –
Cc1ccccc1NC(=O)CSc1nc2c(oc3ccccc32)c(=O)n1-c1ccccc1F | inactive: 1.97% | –
CC1CCN(C(=O)c2cc(-c3ccc(Cl)cc3)on2)CC1 | – | inconclusive: 5.01 µM [signal inhibitor, partial curve]
CCCOc1cccc(C(=O)N(Cc2cc(OC)c(OC)c(OC)c2)C2CCS(=O)(=O)C2)c1 (stereo not drawn) | inactive: -0.719% | –
[N-]=[N+]=N[C@@H]1[C@H](O)[C@H](CO)O[C@@H]1n1cnc2c(N)ncnc21 | inactive: 1.62% [at 11.4 µM, scaled: untreated 0%, proteasome inhibitor 100%] | –
CCOC(=O)c1oc2ccccc2c1CSc1nnnn1-c1ccc(C)cc1 | inactive: 1.01% | –
CSc1nc2c(c(-c3ccc(O)cc3)c1C#N)CCC2 | inconclusive: 11.6% [signal inhibitor] | –
COc1cccc(-c2nccc(NCc3ccccc3OC)n2)c1 | inactive: -1.35% [at 11.4 µM, scaled: untreated 0%, proteasome inhibitor 100%] | –
O=C1c2[nH]nc(-c3ccccc3O)c2C(c2cccc(Cl)c2)N1Cc1ccco1 (stereo not drawn) | inconclusive: -2.17% [signal inhibitor] | –
CCN(CC)c1ccc(NC(=O)c2cncc(Br)c2)cc1 | inconclusive: 3.36% [signal inhibitor] | –
Cc1cc(C(=O)Nc2ccc3c(c2)OCO3)cs1 | inactive: 0.485% | –
COc1ccc(Cl)cc1NC(=O)CCCn1c(C)c2cnn(-c3ccccc3)c(=O)c2c1C | – | inconclusive: 0.794 µM [signal inhibitor, full curve]
O=c1n(Cc2ccccc2)c2cc(Cl)cnc2n1Cc1ccccc1 | inconclusive: 2.82% [signal inhibitor] | –
O=c1c2c(nc3c(-c4ccc(Cl)cc4)c[nH]n13)CCCC2 | inconclusive: 12.8% [signal inhibitor] | –
COc1ccc(-c2noc(N3CCC(C(=O)Nc4ccc(C)c(F)c4)CC3)n2)cc1OC | inconclusive: 2.86% [signal inhibitor] | –
CCOC(=O)C1CCN(C(=O)c2cc3c(-c4ccc(OC)c(OC)c4)nn(C)c3s2)CC1 | inactive: -1.47% | –
CCOC(=O)c1c(-c2ccc(C)cc2C)csc1NC(=O)CSc1nnnn1C | inconclusive: 4.14% [signal inhibitor] | –
Cc1ccc(NC(=O)CC2Nc3cccc4cccc(c34)NC2=O)cc1 (stereo not drawn) | inconclusive: 13.6% [signal inhibitor] | –
COc1ccc(N(Cc2ccccc2)C(=O)c2nc(SC)ncc2Cl)cc1 | inconclusive: -1.26% [signal inhibitor] | –

Compound | IkBa stabilization activation | Potency
CCOc1ccccc1-n1c(SCC(N)=O)nnc1-c1ccco1 | inconclusive: 6.18% [signal inhibitor] | –
Cn1c(=O)c2c(-c3cccc(Br)c3)n(C(C)(C)CO)cc2n(C)c1=O | inconclusive: 2.04% [signal inhibitor] | –
Cc1cc2cc(CCNC(=O)c3c(-c4ccccc4Cl)noc3C)c(=O)[nH]c2cc1C | inconclusive: 2.05% [signal inhibitor] | –
CN(C)c1ccc(CNC(=O)c2cccc(NC(=O)N3CCSc4ncccc43)c2)cc1 | inconclusive: -0.998% [signal inhibitor] | –
O=C(O)c1ccc(S(=O)(=O)Cc2ccccc2)cc1 | inactive: -0.325% | –
O=C1N(Cc2ccccc2)c2ccc(Cl)cc2C1(O)c1c[nH]c2ccccc12 (stereo not drawn) | inconclusive: 0.754% [signal inhibitor] | –
Cc1cc2nc(-c3ccc(OCc4ccccc4Cl)cc3)cc(C(F)(F)F)n2n1 | inconclusive: 6.44% [signal inhibitor] | –
COc1ccccc1NC(=O)Cn1c(SCC(=O)N(C)c2ccccc2)nc2ccccc21 | inconclusive: 0.464% [signal inhibitor] | –
Fc1ccc(Nc2ncnc3onc(-c4cccc(Cl)c4)c23)c(F)c1 | – | inconclusive: 15.8 µM [signal inhibitor, partial curve]
CCc1cc2c(=O)c(-c3ccc4c(c3)OCCO4)coc2cc1OC(=O)c1ccco1 | inactive: -1.71% | –
Cc1cc(C)cc(NC(=O)Cn2cc(S(=O)(=O)NC(C)(C)C)c(S(=O)(=O)NC(C)(C)C)c2)c1 | inconclusive: 3.76% [signal inhibitor] | –
CC(C)c1nc(SCC(=O)N2CCN(c3ccccc3)CC2)c2c(=O)n(C)c(=O)n(C)c2n1 | inconclusive: 1.94% [signal inhibitor] | –
CCOc1ccccc1NC(=O)CSc1nnc2[nH]c(=O)cc(-c3ccccc3)n12 | inactive: 15.5% | –
Cc1ccc(S(=O)(=O)Nc2cccc3ncccc23)s1 | – | inconclusive: 20 µM [rising, partial curve]
COc1cc(OC)c(/C=C2/C(=O)Nc3ccccc32)c(OC)c1 | – | inconclusive: 39.8 µM [rising, partial curve]
CC(C)=C[C@H]1[C@@H](COC(=O)c2cc3c(cc2Cl)OCO3)C1(C)C | inactive: -0.835% [at 11.4 µM, scaled: untreated 0%, proteasome inhibitor 100%] | –
CCN1CCN(Cc2nc3cc(NC(=O)c4cc(OC)c(OC)c(OC)c4)ccc3n2CC)CC1 | inconclusive: 7.32% [signal inhibitor] | –
COc1ccc(S(=O)(=O)n2nc(-c3ccco3)nc2NCc2ccc(N(C)C)cc2)cc1 | inconclusive: -1.37% [signal inhibitor] | –
CCOc1ccc(Nc2oc(-c3ccco3)nc2C#N)cc1 | inactive: -3.06% | –
Cc1cc(N2CCOCC2)c2c(N)c(Br)cc(C)c2n1 | inactive: -2.1% | –
Cc1cccnc1NC(=O)c1c(O)c2ccccc2n(C)c1=O | inconclusive: 6.77% [signal inhibitor] | –
CC(C)c1ccc(NC(=O)CN2C(=O)COc3ccc(S(=O)(=O)N4CCCCC4)cc32)cc1 | inactive: 2.27% | –
CCc1ccccc1NC(c1nnc(-c2cccc(F)c2)o1)c1ccc(F)cc1Cl (stereo not drawn) | inconclusive: 15.1% [signal inhibitor] | –

Compound | IkBa stabilization activation | Potency
Cn1cccc1-c1nc2ccc(NC(=O)c3cccs3)cc2[nH]1 | inconclusive: 3.36% [signal inhibitor] | –
CCc1cc(=O)oc2cc(OCC(=O)N3CCc4ccccc43)ccc12 | inactive: 0.0757% | –
O=C(O)CN(CCN(CC(=O)O)CC(=O)O)CC(=O)O.[Cu] | inactive: 0.359% [at 11.4 µM, scaled: untreated 0%, proteasome inhibitor 100%] | –
Cc1ccc2scc(N3CCc4ccccc4C3)c(=O)c2c1 | – | inconclusive: 25.1 µM [signal inhibitor, partial curve]
COc1ccccc1CN(CC(=O)NCc1ccco1)C(=O)CNS(=O)(=O)c1ccc(C)cc1 | inconclusive: 1.39% [signal inhibitor] | –
C[C@H]1C[C@H]2[C@H]3CCC4=CC(=O)C=C[C@@]4(C)[C@]3(F)[C@H](O)C[C@]2(C)[C@@]1(O)C(=O)COP(=O)(O)O | inactive: 7.2% [at 11.4 µM, scaled: untreated 0%, proteasome inhibitor 100%] | –
COc1cc(OC)cc(-c2nc3nc(C)c(CCC(=O)Nc4ccc(C)c(C)c4)c(C)n3n2)c1 | inconclusive: 1.33% [signal inhibitor] | –
Cc1ccc2c3c(c(SCC(=O)Nc4nonc4C)nc2c1)CCCC3 | inactive: -0.27% | –
CCOC(=O)c1ccccc1NC(=O)CSc1ccc(-c2cccs2)nn1 | inactive: -3.23% | –
Cc1c(N=Cc2ccco2)c(=O)n(-c2ccccc2)n1C | inactive: 0.165% | –
Cc1ccc2occ(CC(=O)N(Cc3ccc(Cl)cc3)C3CCS(=O)(=O)C3)c2c1 (stereo not drawn) | inconclusive: 6.58% [signal inhibitor] | –
COc1ccc(-c2cc(C(F)(F)F)nc(SCCC(=O)Nc3ccccc3F)n2)cc1 | inactive: 0.866% | –
Cn1cc(C2=C(c3ccc(Cl)cc3Cl)C(=O)NC2=O)c2ccccc21 | inconclusive: 1.08% [signal inhibitor] | –
CN(Cc1ccco1)c1ncnc2ccc(-c3cccc(NS(C)(=O)=O)c3)cc12 | inactive: 0.117% [at 11.4 µM, scaled: untreated 0%, proteasome inhibitor 100%] | –
CCC1CCCCN1C(=O)CSc1nc2c([nH]c3ccccc32)c(=O)n1C (stereo not drawn) | inactive: -0.628% | –
O=C(Cc1ccccc1)NC1CC(=O)N(c2ccccc2)C1 (stereo not drawn) | inconclusive: -2.87% [signal inhibitor] | –
CC1(C)CC(=O)C2=C(C1)OC(N)=C(C#N)C21CCN(C(=O)OCc2ccccc2)CC1 | inactive: 2.71% | –
Cc1ccc(-c2noc(CNS(=O)(=O)c3ccc(F)cc3)n2)cc1 | inconclusive: -3.3% [signal inhibitor] | –
COCCNS(=O)(=O)c1cc(-c2nn(C)c(=O)c3ccccc23)ccc1C | inactive: -0.297% | –
COc1ccccc1N1CCN(C(=O)CN2C(=O)COc3ccc(S(=O)(=O)N4CCCCCC4)cc32)CC1 | inconclusive: -0.394% [signal inhibitor] | –
O=S(=O)(NCCO)c1cccc2cccnc12 | inactive: 2.47% | –
Cc1c(NC(=O)c2cc(-c3ccc(F)cc3)on2)c(=O)n(-c2ccccc2)n1C | – | inconclusive: 20 µM [signal inhibitor]
